From PubChem BioAssay AID1347120 (National Center for Advancing Translational Sciences (NCATS), 2019)
Out of some 390,000 compounds screened, about 930 (0.24%) were called active. The inconclusive results got no clear call from the source; some entries with a clear call stand among them for comparison. Calls follow the shape of the dose curve; as a rule, active = well fitted activation curve with a large enough effect; inconclusive = small, poorly fitted or top-dose-only effect; inactive = no such curve, though single readings can be large or run the other way. A potency beside an inconclusive call is a rough fit, not a confirmed value.

Test: qHTS for Suppressors of FUS Proteinopathy: Primary screen using FUS-linked yeast assay; also: nearly all actives have a fitted effect of over 55% in size;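 as to growth rescue (activation): plate controls were DMSO vehicle for no effect and reference control for full effect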
Settings: S. cerevisiae FUS-expressing, OD600, 24 h; Potency: growth rescue; growth rescue (activation): at 76.6 µM (top of the series)
Outline: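 Restored growth of FUS-toxic S. cerevisiae, read as 600 nm absorbance after 24 h at 30C in galactose medium (starting OD 0.005). Controls CP55940 and DMSO.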
Potency is read from the fitted curve at half-maximal effect; tags tell the direction and shape of the fitted curve.

SMILES	Potency	growth rescue (activation)
COc1ccc(NS(=O)(=O)c2ccc(N3CCOCC3)c(NC(=O)c3ccccc3Br)c2)cc1	inconclusive: 50.1 µM [activator, partial curve, poor fit]	–
CN(Cc1ccccc1)C(=O)c1[nH]cnc1C(=O)N[C@@H](Cc1ccccc1)C(=O)OCc1ccccc1	inconclusive: 14.1 µM [activator, partial curve, poor fit]	–
O=C(Nc1cc([N+](=O)[O-])ccc1O)c1ccc2c(c1)C(=O)N(Cc1ccco1)C2=O	–	inactive: 18.1%
Cc1cc(NS(=O)(=O)c2ccc(NC(=O)C(c3ccccc3)c3ccccc3)cc2)no1	inconclusive: 28.2 µM [activator, single point]	–
CCN1CCCC1CN(Cc1cc2cc(C)cc(C)c2[nH]c1=O)C(=O)Nc1ccccc1OC (centres undefined)	active: 31.6 µM	–
Cc1cccc(Cn2nnc3c(=O)[nH]c(C4CCCN(C(=O)c5ccc(C(C)(C)C)cc5)C4)nc32)c1 (centres undefined)	active: 22.4 µM	–
CCc1ccc(C2CC(=O)N(c3cccc(C(F)(F)F)c3)C3=C2C(=O)OC3)cc1 (centres undefined)	–	inactive: 7.86%
C=CC[n+]1c(-c2ccc(OC)cc2)csc1NNC(=O)Nc1ccccc1	inconclusive: 17.8 µM [activator, partial curve, poor fit]	–
COC1=C[C@H](C(=O)NCc2ccc(Br)cc2)[C@H](C)[C@@H](c2ccccc2)CC1=O	inconclusive: 14.1 µM [activator, partial curve, poor fit]	–
O=C(COC(=O)Cn1c(C(F)(F)F)nc2ccccc21)Nc1ccc2c(c1)OCCO2	inconclusive: 10 µM [activator, single point]	–
COc1ccccc1C(=O)NCCc1csc(-c2ccc(C(F)(F)F)cc2)n1	inconclusive: 39.8 µM [activator, single point]	–
Cc1c(C(=O)NCc2ccc3c(c2)OCCO3)sc(=O)n1Cc1ccccc1C(F)(F)F	inconclusive: 50.1 µM [activator, single point]	–
O=C(NCc1ccccc1F)c1cccc(NC(=O)N2CCSc3ncccc32)c1	–	inactive: -8.68%
CCc1nc(-c2ccc(OC)c(OC)c2)cc2cc(OC)c(OC)cc12	–	inactive: 3.19%
COc1ccc(C2CC(=O)c3cc(-c4nc(-c5cccc([N+](=O)[O-])c5)cs4)c(=O)n(-c4ccccc4C)c3C2)cc1 (centres undefined)	–	inactive: 1.31%
Cn1ccc2c(-c3cccc4ccccc34)cc3c(c21)C1CCC3O1 (centres undefined)	inconclusive: 25.1 µM [activator, partial curve, poor fit]	–
O=C(Nc1cccc(C(=O)O)c1)/C(=C\c1ccc2c(c1)OCO2)NC(=O)c1ccc(Br)cc1	inconclusive: 50.1 µM [activator, single point]	–
CC1=C(C(=O)Nc2cccc(C(=O)N3CCN(c4cccc(C(F)(F)F)c4)CC3)c2)SCCO1	inconclusive: 44.7 µM [activator, single point]	–
CC(C)(C)SCCNC(=O)CN(c1ccc(F)cc1)S(C)(=O)=O	–	inactive: -12.7%
CN(C(=O)c1cc(-c2cccs2)nn1-c1ccccc1)C1CCS(=O)(=O)C1 (centres undefined)	inconclusive: 28.2 µM [activator, single point]	–

SMILES	Potency	growth rescue (activation)
O=C(CCCC(=O)N1CCN(c2cccc(Cl)c2)CC1)c1ccccc1	inconclusive: 20 µM [activator, single point]	–
COc1ccccc1CN(C(=O)Cc1cccs1)C(C(=O)NC1CCCC1)c1ccncc1 (centres undefined)	inconclusive: 14.1 µM [activator, single point]	–
COc1cc(C(=O)OCC(=O)Nc2cc(S(=O)(=O)N3CCOCC3)ccc2C)ccc1OCC(C)C	inconclusive: 35.5 µM [activator, single point]	–
Cc1ccc(S(=O)(=O)Oc2ccc(C(c3c(C)[nH][nH]c3=O)c3c(C)[nH][nH]c3=O)cc2)cc1	inconclusive: 50.1 µM [activator, partial curve, poor fit]	–
O=c1c(O)c(-c2ccc3c(c2)OCO3)oc2ccccc12	–	inactive: 7.4%
CN(C(=O)Cn1c(=O)n(Cc2ccc(C(=O)NCc3ccc4c(c3)OCO4)cc2)c(=O)c2ccccc21)c1ccccc1	inconclusive: 3.98 µM [activator, full curve, poor fit]	–
COc1cc2cnc(-c3ccccc3)c(-c3ccc(C(F)(F)F)cc3)c2cc1OC	inconclusive: 31.6 µM [activator, single point]	–
COC(=O)c1ccccc1NC(=O)Cn1ncc2c(C)n(Cc3ccc(F)cc3)c(C)c2c1=O	inconclusive: 28.2 µM [activator, single point]	–
COc1cc(C(O)c2nc(/C=C/c3ccccc3)cs2)ccc1F (centres undefined)	–	inactive: 37.1%
Cc1cnc(NC(=O)Cc2ccccc2Cl)s1	inconclusive: 0.891 µM [activator, full curve, poor fit]	–
CCN1CCc2c(sc(NC(=O)CSc3ccccc3)c2-c2nc3ccccc3s2)C1	inconclusive: 35.5 µM [activator, single point]	–
CCC1=Nc2cc(C(=O)NCCCOC(C)C)ccc2Sc2ccc(C)cc21	inconclusive: 25.1 µM [activator, single point]	–
CCCCN(C)C(=O)c1ccc2c(c1)N(Cc1cccc(Cl)c1)C(=O)c1ccccc1S2=O (centres undefined)	inconclusive: 28.2 µM [activator, partial curve]	–
CN(CCc1ccccc1)C(=O)c1ccc(NC(=O)Cc2cccc(NC(=O)C3CCN(C(=O)C4CCCCC4)CC3)c2)cc1	inconclusive: 50.1 µM [activator, single point]	–
COc1ccc(Br)c(Cn2c(C)c(C(=O)NCc3ccc4c(c3)OCCO4)sc2=O)c1	inconclusive: 50.1 µM [activator, partial curve, poor fit]	–
CCOC(=O)C1=C(N)n2c(s/c(=C\c3ccco3)c2=O)=C(C(=O)OCC)C1c1ccco1 (centres undefined)	inconclusive: 12.6 µM [activator, partial curve, poor fit]	–
CCn1c(CSc2nc3ccccc3s2)nnc1SCC(=O)c1ccc(O)c(O)c1	inconclusive: 39.8 µM [activator, single point]	–
Cc1ccc(NC(=O)N2CCc3c(sc4c3CCCC4)C2c2ccccc2)cc1F (centres undefined)	–	inactive: 4.16%
CCC(C)N1CCC2(CC1)N=c1c(c3c4c5c(C)c(O)c3c(O)c1=NC(=O)C(C)=CC=C[C@H](C)[C@H](O)[C@@H](C)[C@@H](O)[C@@H](C)[C@H](OC(C)=O)[C@H](C)[C@@H](OC)C=CO[C@@](C)(O5)C4=O)N2 (some centres undefined)	inconclusive: 7.94 µM [activator, partial curve]	–
COc1ccc(-c2[nH]c(-c3ccccc3)nc2SCC(=O)Nc2ccc3c(c2)OCO3)cc1	–	inactive: 3.19%

SMILES	Potency	growth rescue (activation)
CCC(=O)NC(c1ccc(Cl)cc1Cl)c1ccc2cccnc2c1O (centres undefined)	inconclusive: 15.8 µM [activator, partial curve, poor fit]	–
Cc1ccc(NS(=O)(=O)c2cccc(C(=O)NCCc3c[nH]c4ccccc34)c2)c(C)c1	inconclusive: 39.8 µM [activator, single point]	–
Nc1nc(N2CCN(Cc3ccccc3)CC2)n[nH]1	–	inactive: -5.9%
CCCCC(=O)Nc1ccc(C(=O)NNC(=O)c2ccccc2Br)cc1	–	inconclusive: 56% [activator]
CCCn1c(=N)n(CC(=O)c2ccc([N+](=O)[O-])cc2)c2ccccc21	inconclusive: 39.8 µM [activator, partial curve, poor fit]	–
COc1cc(OC)c(C2C=C(c3ccc(C)cc3)Nc3c(C(=O)Nc4ccccc4)cnn32)cc1OC (centres undefined)	inconclusive: 50.1 µM [activator, single point]	–
COC(=O)C1=C(C)NC(=O)NC1c1cn(-c2ccccc2)nc1-c1ccc(OC)c(Cl)c1 (centres undefined)	inconclusive: 39.8 µM [activator, single point]	–
Cc1ccc(/C=C2/SC(=S)N(c3ccc(S(=O)(=O)Nc4nccs4)cc3)C2=O)cc1	–	inactive: 32.6%
COc1ccc(C2=CC(=O)C[C@H](c3ccc(F)cc3)C2)cc1F	inconclusive: 44.7 µM [activator, partial curve, poor fit]	–
Cn1cccc1C(C(=O)NC1CCCCC1)N(C(=O)Cc1cccs1)c1ccc2c(c1)OCO2 (centres undefined)	–	inactive: -7.14%
COc1cccc2c(Cl)c(CC=C(Cl)Cl)c(C)nc12	–	inactive: 9.05%
O=C(COC(=O)C12CC3CC(CC(Br)(C3)C1)C2)Nc1ccc2[nH]c(=O)[nH]c2c1	inconclusive: 39.8 µM [activator, single point]	–
CC(C)OC(=O)C(C(=O)C(F)(F)F)c1cc(NS(=O)(=O)c2ccc3ccccc3c2)c2ccccc2c1O (centres undefined)	active: 10 µM	–
Cc1ccc(S(=O)(=O)N2CCCc3cc(NC(=O)c4ccc(C(F)(F)F)cc4)ccc32)cc1	inconclusive: 35.5 µM [activator, single point]	–
COC(=O)c1ccccc1NC(=O)CSc1nc(O)cc(=O)n1C1CCCC1	inconclusive: 56.2 µM [activator, partial curve, poor fit]	–
CC[C@]12c3[nH]c4cc(CCC(=O)N(C)C)ccc4c3CCN1C(=O)[C@@H](CC(=O)NC/C=C(\C)CCC=C(C)C)C[C@@H]2C(=O)N1CCN(C(=O)C2CC2)CC1	inconclusive: 14.1 µM [activator, partial curve, poor fit]	–
CSCCC(NC(=O)C1CCCCC1)C(=O)Nc1ccc(F)c(Cl)c1 (centres undefined)	–	inactive: -10.8%
Cc1cccc(N2CCN(C(=O)c3cn(C)c(=O)c4c3c3ccccc3n4C)CC2)c1C	inconclusive: 50.1 µM [activator, partial curve, poor fit]	–
CCc1ccc(OCC2c3cc(OC)c(OC)cc3CCN2C(=O)Cc2ccc(OC)c(OC)c2)cc1 (centres undefined)	inconclusive: 28.2 µM [activator, single point]	–
